# Measured values reported in PubChem BioAssay AID2101 (National Center for Advancing Translational Sciences (NCATS), 2009).
# “And” between values parts separate entries of the source, which are not always exact repeats. Equal values may be shown once. Out of some 330,000 compounds screened, about 300 (0.091%) were called active. Inconclusive means that the source gave no clear call. Such entries were picked first, then a sample of the others. Calls follow the shape of the dose curve; as a rule, active = well fitted inhibition curve with a large enough effect; inconclusive = small, poorly fitted or top-dose-only effect, or effect the other way, or another doubt; inactive = no such curve, though single readings can be large or run the other way. Potencies of inconclusive entries are left out as doubtful fits.
# Target: Lysosomal acid glucosylceramidase (Homo sapiens) (UniProt P04062)
# Experiment: qHTS Assay for Inhibitors and Activators of N370S glucocerebrosidase as a Potential Chaperone Treatment of Gaucher Disease;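 as to activity change, negative = inhibition: 0% = full enzyme activity and -100% = no enzyme basal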
# Settings: N370S GC spleen homogenate, 4MU-glucoside fluorescence; activity change, negative = inhibition: at 59.4 µM (top of the series) unless noted
# Potency is read from the fitted curve at half-maximal effect.
SMILES,Potency,"activity change, negative = inhibition"
O=C(COc1ccc2c3c(c(=O)oc2c1)CCCC3)NCC(O)c1ccccc1 (configuration not stated),"inconclusive [inhibitor, partial curve]",
O=C(N/N=C/c1ccco1)c1cc(Br)ccc1OCc1ccccc1,"inconclusive [activator, partial curve]",
COCCCn1c(C(=O)NCCC2=CCCCC2)cc2c(=O)n3ccccc3nc21,"inconclusive [activator, single point]",
O=C(Nc1nnc(-c2ccc(F)cc2)s1)c1ccco1,inactive,
Cc1ccc(C2C3=C(CC(C)(C)CC3=O)N(CCN3CCOCC3)C3=C2C(=O)CC(C)(C)C3)cc1,"inconclusive [activator, partial curve]",
O=C(c1ccc(Cl)cc1)c1cc(-c2ccccn2)c(N2CCOCC2)s1,"inconclusive [activator, partial curve]",
CC(C)CNc1cc(N2CCCC2)ccc1[N+](=O)[O-],"inconclusive [activator, single point]",
Oc1ccc(C(c2nnnn2C2CCCCC2)N2CCOCC2)cc1 (configuration not stated),inactive,
O=C1Nc2ccccc2C1(c1ccccc1)c1ccccc1,"inconclusive [activator, single point]",
N#Cc1nc(-c2ccccc2)oc1NCc1ccco1,inactive,
O=C(Nc1nc2c(s1)CCCC2)c1ccc(Br)s1,"inconclusive [activator, single point]",
COc1ccc2c(c1)C(NC(C)=O)C(=O)N2CCc1ccccc1 (configuration not stated),inactive,
CC(=O)c1ccc(NC(=O)Nc2cccc3ccccc23)cc1,inactive,
Cc1ccc2c(c1)NC(=O)[C@@]1(C)[C@@H](c3ccccc3)[C@H]3COc4ccccc4[C@@H]3N1C2=O,"inconclusive [activator, partial curve]",
Cc1ccc2c(Cl)cc(Cl)c(OCC(=O)NC(C)(C)C)c2n1,"inconclusive [activator, single point]",
CCCCCCCNC(=O)C1(CC2CC(c3ccc(Cl)cc3)=NO2)CCNCC1 (configuration not stated),"inconclusive [inhibitor, partial curve]",
CCC/C=C(\CCC)C(NC(=O)c1ccccc1)c1ccccc1 (configuration not stated),inactive,
CCOc1ccc(CNC(=O)C2CCN(c3nnc(C)c4c(C)n(-c5ccc(C)cc5)nc34)CC2)cc1,"inconclusive [activator, single point]",
NCCCC(O)(P(=O)(O)O)P(=O)(O)O,inactive,
O=C(NNC(=O)c1cccc2ccccc12)c1ccc2c(c1)OCO2,inactive,
Cc1cc(Oc2ccc(-c3nnc(-c4ccccc4)o3)cc2[N+](=O)[O-])ccc1Cl,inactive,

SMILES,Potency,"activity change, negative = inhibition"
O=C(Nc1cccc2cccnc12)c1ccc(Cl)cc1,"inconclusive [activator, single point]",
O=C(CSc1nnc(SCc2ccc(Cl)cc2)s1)N1CCOCC1,,inconclusive: 35.7% [activator]
O=C(CN1C(=O)c2ccccc2S1(=O)=O)c1ccc(F)c(F)c1,inactive,
CCOC(=O)C1=C(c2ccccc2)NC(=O)NC1c1ccc(OC)cc1OC (configuration not stated),"inconclusive [inhibitor, partial curve, poor fit]",
CCCCN1CC(O)=C(c2nc(-c3ccc(Br)cc3)cs2)C1=N,"inconclusive [activator, partial curve]",
CCN(CC)CCCN(Cc1cc2cc3c(cc2[nH]c1=O)OCCO3)C(=O)Nc1ccccc1,"inconclusive [activator, partial curve]",
CCN1C(=O)[C@H]2[C@H]3[C@H](O)[C@H](O)C/C(=N/O[C@@H](C)c4cn([C@H](CO)Cc5ccccc5)nn4)[C@@H]3CC[C@@H]2C1=O,,inactive: 4.09% [at 12.8 µM] and inactive: -0.0086% [at 12.8 µM]
CCOC(=O)c1c(C2CC2)csc1NC(=O)COC(=O)c1cc(OC)c(OC)cc1[N+](=O)[O-],"inconclusive [activator, full curve]",
O=C(N/N=C/c1ccc[nH]1)c1ccccc1OCc1ccccc1Cl,"inconclusive [activator, partial curve]",
O=C(O)c1nc(Cl)c(Cl)c(N/N=C/c2ccccc2C(F)(F)F)c1Cl,"inconclusive [activator, single point]",
COc1ccc(COC(=O)N/N=C2/C[C@@H](O)[C@@H](O)[C@@H]3[C@@H]4C(=O)N(c5cccc(Oc6ccccc6)c5)C(=O)[C@H]4CC[C@@H]23)cc1,,inactive: -1.26% [at 12.8 µM]
Cc1ccc2sc(NNC(=O)C3COc4ccccc4O3)nc2c1C (configuration not stated),"inconclusive [activator, partial curve]",
CCOC(=O)CSC1=Nc2ccccc2C2=NC(CC(=O)NCc3ccc(OC)cc3)C(=O)N12 (configuration not stated),inactive,
O=C(c1cccs1)n1nc(-c2cccnc2)nc1NCc1ccco1,"inconclusive [activator, single point]",
Cc1nn2c(-c3ccc(S(=O)(=O)N4CCN(C)CC4)o3)nnc2c2ccccc12,"inconclusive [inhibitor, single point]",
Cc1ccc(C(C(=O)NCC2CCCO2)N(C(=O)c2snc(C(N)=O)c2N)c2ccccc2)o1 (configuration not stated),"inconclusive [activator, single point]",
Cc1cc(=O)[nH]c(N/N=C/c2cn(CCC#N)nc2-c2ccccc2)n1,"inconclusive [inhibitor, single point]",
Cc1ccc(C)c(-c2cc(C(=O)N/N=C/c3cccnc3)c3ccccc3n2)c1,"inconclusive [activator, single point]",
Cc1ccccc1OCCNc1cc(N2CCNCC2)ccc1[N+](=O)[O-],"inconclusive [inhibitor, partial curve]",
C/C(=N\OCC(=O)Nc1ccc(OC(F)(F)F)cc1)c1ccc2c(c1)OCCO2,"inconclusive [inhibitor, single point]",
Cc1ccc(CNC(=O)C(Cc2ccccc2)NS(=O)(=O)c2ccc3c(c2)CCC(=O)N3)cc1 (configuration not stated),"inconclusive [inhibitor, single point]",
